# From the supplement of paper PMC12217912
# The list shows a part of the results. Sequences were assembled here from the parent chain. Inactive controls read about 0.05.
# B1: TEV protease; numbered along this chain (parent)
# chain: MGESLFKGPRDYNPISSSICHLTNESDGHTTSLYGIGFGPFIITNKHLFRRNNGTLVVQSLHGVFKVKDTTTLQQHLVDGRDMIIIRMPKDFPPFPQKLKFREPQREERICLVTTNFQTKSMSSMVSDTSCTFPSGDGIFWKHWIQTKDGQCGSPLVSTRDGFIVGIHSASNFTNTNNYFTSVPKNFMELLTNQEAQQWVSGWRLNADSVLWGGHKVFMVKPEEPFQPVKEATQL
# Variants of: B1
# Assay: raw area under fraction-flipped curve 0-4 h after induction (AUC4h, not background-subtracted), DNA-recorder readout of cleavage of the substrate (dimensionless); higher = more cleavage of the substrate by the protease variant
# Details: temperature: 34 °C; time window: 0-4 h after rhamnose induction
# Procedure: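 In vivo DNA recorder in E. coli TOP10(DE3) ΔrhaA at 34 °C. Each TEVp single-site mutant (parent TEVp 0) is paired with a single-site variant of the 7-mer TEVs (canonical ENLYFQ|S). The substrate sits between flexible linkers in a Bxb1-sfGFP-TEVs-SsrA fusion, so cleavage stabilises Bxb1 and speeds flipping of a recombination array, read by NGS. The value is the raw area under the fraction-flipped curve over 0-4 h after rhamnose induction (AUC4h), with ≥20 reads per time point. It is not background-subtracted; inactive controls average about 0.047.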
# 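Note: Bxb1 expression induced with 0.2% (w/v) L-rhamnose at OD600 near 0.5, cultures sampled hourly, flipped fraction per protease–substrate barcode pair counted by paired-end Illumina sequencing.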
Variant,area with substrate CNLYFQS,area with substrate HNLYFQS,area with substrate INLYFQS,area with substrate KNLYFQS,area with substrate LNLYFQS,area with substrate MNLYFQS,area with substrate NNLYFQS,area with substrate PNLYFQS,area with substrate QNLYFQS,area with substrate SNLYFQS,area with substrate TNLYFQS,area with substrate WNLYFQS,area with substrate DNLYFQS,area with substrate FNLYFQS,area with substrate GNLYFQS,area with substrate VNLYFQS,area with substrate YNLYFQS,area with substrate RNLYFQS
N24M,0.0462,0.0691,0.0691,0.0341,0.0754,0.0641,0.05,0.0755,0.0809,0.0645,0.0664,0.0572,,,,,,
C20P,0.0464,0.0458,0.0317,0.0531,,0.0471,0.0468,0.0493,0.0547,0.0486,0.0666,0.0482,0.0485,0.0355,0.0537,0.065,0.0543,
I15H,0.0667,0.0696,0.0655,,0.0383,,0.0629,0.0768,,,0.0608,0.0554,0.0556,0.0704,,0.0691,0.0683,
G28F,0.053,,0.0541,,0.0782,0.0676,0.0749,0.0623,,,0.0592,0.0066,0.0768,,0.0629,0.0697,,
G28K,0.0614,,0.0684,0.0541,0.0513,,0.0743,0.0574,0.0334,0.0686,0.0578,0.0606,0.059,,,0.0554,,
E25D,0.0652,,0.0756,0.0675,0.0649,0.0651,0.0605,0.0674,0.0322,0.0601,0.0539,0.0452,0.0826,0.0625,,0.0581,0.0435,
E25L,0.0752,0.0569,0.0703,0.0746,0.0666,0.0623,0.0854,0.0676,0.0757,0.0604,0.0695,0.0735,0.0677,,0.0409,,0.0614,0.0603
E25V,0.0719,0.073,,0.072,0.0533,0.0691,0.0649,0.0593,0.0694,0.0728,0.0682,0.114,0.0783,,0.0738,0.0644,0.0556,
T23H,0.0681,0.0661,0.075,0.0594,0.0673,,0.0616,0.0611,,,0.0676,0.0622,0.0723,,,0.0531,0.0531,0.0536
T23V,0.0987,0.0756,0.0704,0.0747,0.0684,0.0666,0.0684,0.0696,,0.0688,0.0759,0.064,0.0884,,,,0.0578,
S18W,0.0718,0.0801,0.039,0.065,0.0643,0.0754,0.0608,0.0767,0.035,0.0419,0.0664,0.0582,0.0711,0.0598,0.058,0.0447,0.0614,
S18E,0.0664,0.0756,,0.0633,0.0581,0.0574,,0.0709,,0.0708,0.0487,0.0499,0.0816,,,,0.058,
T30N,0.116,0.0647,,0.071,0.0554,0.0787,,0.0646,0.0448,,0.0666,0.0593,0.0711,0.0667,,0.0719,,
D27L,0.0616,0.0782,0.0669,0.0636,0.0552,0.0684,0.0542,0.0642,,0.0605,0.055,0.0921,0.0643,0.0635,0.0628,,0.0434,0.0543
H21L,0.0711,0.062,0.0396,0.0576,0.0619,0.0745,0.0535,0.0703,,0.0592,0.0563,0.0645,0.0678,,,0.0556,0.0609,0.0624
H21R,0.0681,,0.0644,0.0776,0.0651,0.0552,0.0713,0.0797,,,0.0523,0.0561,0.0807,0.0482,,0.0368,0.0506,
H29V,0.074,0.0674,0.101,0.0066,0.0633,0.0641,0.0721,0.0591,,0.0628,0.0422,0.0612,0.0993,,0.0663,0.068,,
H29K,0.0613,,,0.035,,,,,,,,0.0298,0.0657,0.0641,,,,
H29S,0.0749,0.0762,0.0744,,0.0688,0.0663,0.0611,0.0624,0.077,0.0622,0.0657,0.0514,0.0875,,,,0.046,
S26D,0.0468,0.0679,,0.059,0.0677,0.0407,0.06,0.0753,0.0581,,0.0646,0.0545,0.0813,0.0611,,0.0433,0.0618,0.0497
P14G,0.0865,0.055,0.0709,0.044,0.0577,0.0777,,,,,0.0697,0.068,0.0757,,0.0608,0.0733,0.0622,
P14N,0.0549,0.0387,0.0369,0.0538,0.0263,0.0697,0.0513,0.0561,,,0.0663,0.0687,0.0631,,0.0609,,0.0585,
L22N,0.0411,0.0414,0.056,,0.0376,,,0.0515,,,0.0415,0.0537,0.046,0.0489,0.0561,,0.0314,
I19N,0.0574,0.0596,0.0558,0.056,0.0369,,0.0351,0.0524,0.0502,0.0392,0.0559,0.049,0.0528,0.0516,0.0576,0.0561,0.0479,
I19S,0.0405,0.0644,,,,0.051,0.0326,0.0716,,0.0573,0.0583,0.0421,0.0791,0.023,0.051,0.0669,,
I19M,0.0709,0.0679,,0.0817,0.0663,,0.0733,0.0817,0.0922,0.0794,0.0645,0.0561,0.0799,0.0594,,,0.065,0.053
